From US7160888B2, “[1,8]naphthyridin-2-ones and related compounds for the treatment of schizophrenia” (Warner Lambert Company LLC, priority 2003, dated 2007)

Molecular target: dopamine D2 receptor (Homo sapiens, UniProt P14416)
Assay: biochemical
Settings: D2 Ki (nM), 0.4 nM [3H]spiperone, CHO-hD2L membranes

UniProt P14416, sequence (P14416 whole entry): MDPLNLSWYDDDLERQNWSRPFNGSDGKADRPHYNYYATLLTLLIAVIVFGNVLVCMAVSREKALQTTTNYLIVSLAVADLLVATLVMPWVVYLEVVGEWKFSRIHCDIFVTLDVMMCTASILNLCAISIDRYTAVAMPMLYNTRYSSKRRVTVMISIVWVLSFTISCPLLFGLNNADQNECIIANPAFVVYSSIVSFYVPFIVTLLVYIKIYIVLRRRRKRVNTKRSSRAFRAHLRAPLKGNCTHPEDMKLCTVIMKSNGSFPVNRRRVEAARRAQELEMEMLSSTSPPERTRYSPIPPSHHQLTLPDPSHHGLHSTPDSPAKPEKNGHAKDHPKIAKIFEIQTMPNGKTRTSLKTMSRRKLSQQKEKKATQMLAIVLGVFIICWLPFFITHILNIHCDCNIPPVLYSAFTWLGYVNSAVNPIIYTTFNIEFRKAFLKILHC

O=C1CCc2ccc(OCCCCN3CCN(c4cccc5ccoc45)CC3)nc2N1 [Example A23′, 7-[4-(4-Benzofuran-7-yl-piperazin-1-yl)-butoxy]-3,4-dihydro-1H-[1,8]naphthyridin-2-one]
Ki (Table 2): 1.1 nM

O=C1CCc2ccc(OCCCCN3CCN(c4cccc5cc[nH]c45)CC3)nc2N1 [Example A24′, 7-{4-[4-(1H-Indol-7-yl)-piperazin-1-yl]-butoxy}-3,4-dihydro-1H-[1,8]naphthyridin-2-one]
Ki (Table 2): 2 nM

CC(C)Oc1ccc(Cl)cc1N1CCN(CCCCOc2ccc3c(n2)NC(=O)CC3)CC1 [Example A25, 7-{4-[4-(5-Chloro-2-isopropoxy-phenyl)-piperazin-1-yl]-butoxy}-3,4-dihydro-1H-[1,8]naphthyridin-2-one]
Ki (Table 1): 1 nM

O=C1CCc2ccc(OCCCCN3CCN(c4cccc5[nH]ccc45)CC3)nc2N1 [Example A25′, 7-{4-[4-(1H-Indol-4-yl)-piperazin-1-yl]-butoxy}-3,4-dihydro-1H-[1,8]naphthyridin-2-one]
Ki (Table 2): 1.4 nM

CC(C)Oc1ccccc1N1CCN(CCCCOc2ccc3c(n2)NC(=O)CC3)CC1 [Example A26, 7-{4-[4-(2-Isopropoxy-phenyl)-piperazin-1-yl]-butoxy}-3,4-dihydro-1H-[1,8]naphthyridin-2-one]
Ki (Table 1): 1 nM

Cn1ccc2c(N3CCN(CCCCOc4ccc5c(n4)NC(=O)CC5)CC3)cccc21 [Example A26′, 7-{4-[4-(1-Methyl-1H-indol-4-yl)-piperazin-1-yl]-butoxy}-3,4-dihydro-1H-[1,8]naphthyridin-2-one]
Ki (Table 2): 12.5 nM

CC(C)COc1ccccc1N1CCN(CCCCOc2ccc3c(n2)NC(=O)CC3)CC1 [Example A27, 7-{4-[4-(2-Isobutoxy-phenyl)-piperazin-1-yl]-butoxy}-3,4-dihydro-1H-[1,8]naphthyridin-2-one]
Ki (Table 1): 1.4 nM

Cc1cc2c(N3CCN(CCCCOc4ccc5c(n4)NC(=O)CC5)CC3)cccc2[nH]1 [Example A27′, 7-{4-[4-(2-Methyl-1H-indol-4-yl)-piperazin-1-yl]-butoxy}-3,4-dihydro-1H-[1,8]naphthyridin-2-one]
Ki (Table 2): 0.5 nM

CC(=O)c1c(Cl)cccc1N1CCN(CCCCOc2ccc3c(n2)NC(=O)CC3)CC1 [Example A28, 7-{4-[4-(2-Acetyl-3-chloro-phenyl)-piperazin-1-yl]-butoxy}-3,4-dihydro-1H-[1,8]naphthyridin-2-one]
Ki (Table 1): 3.5 nM

O=C1CCc2ccc(OCCCCN3CCN(c4cccc5sccc45)CC3)nc2N1 [Example A28′, 7-[4-(4-Benzo[b]thiophen-4-yl-piperazin-1-yl)-butoxy]-3,4-dihydro-1H-[1,8]naphthyridin-2-one]
Ki (Table 2): 0.3 nM

CCc1c(Cl)cccc1N1CCN(CCCCOc2ccc3c(n2)NC(=O)CC3)CC1 [Example A29, 7-{4-[4-(3-Chloro-2-ethyl-phenyl)-piperazin-1-yl]-butoxy}-3,4-dihydro-1H-[1,8]naphthyridin-2-one]
Ki (Table 1): 2.5 nM

O=C1CCc2ccc(OCCCCN3CCN(c4cccc5nonc45)CC3)nc2N1 [Example A29′, 7-[4-(4-Benzo[1,2,5]oxadiazol-4-yl-piperazin-1-yl)-butoxy]-3,4-dihydro-1H-[1,8]naphthyridin-2-one]
Ki (Table 2): 7.4 nM

CC(=O)c1c(F)cccc1N1CCN(CCCCOc2ccc3c(n2)NC(=O)CC3)CC1 [Example A30, 7-{4-[4-(2-Acetyl-3-fluoro-phenyl)-piperazin-1-yl]-butoxy}-3,4-dihydro-1H-[1,8]naphthyridin-2-one]
Ki (Table 1): 15.5 nM

O=C1CCc2ccc(OCCCCN3CCN(c4cccc5nsnc45)CC3)nc2N1 [Example A30′, 7-[4-(4-Benzo[1,2,5]thiadiazol-4-yl-piperazin-1-yl)-butoxy]-3,4-dihydro-1H-[1,8]naphthyridin-2-one]
Ki (Table 2): 8.9 nM

O=C1CCc2ccc(OCCCCN3CCN(c4cccc5nc(C(F)(F)F)[nH]c45)CC3)nc2N1 [Example A31′, 7-{4-[4-(2-Trifluoromethyl-3H-benzoimidazol-4-yl)-piperazin-1-yl]-butoxy}-3,4-dihydro-1H-[1,8]naphthyridin-2-one]
Ki (Table 2): 0.6 nM

CN1CCCc2c1cccc2N1CCN(CCCCOc2ccc3c(n2)NC(=O)CC3)CC1 [Example A32′, 7-{4-[4-(1-Methyl-1,2,3,4-tetrahydro-quinolin-5-yl)-piperazin-1-yl]-butoxy}-3,4-dihydro-1H-[1,8]naphthyridin-2-one]
Ki (Table 2): 28 nM

CC(=O)c1cccc(N2CCN(CCCCOc3ccc4c(n3)NC(=O)CC4)CC2)c1 [Example A33, 7-{4-[4-(3-Acetyl-phenyl)-piperazin-1-yl]-butoxy}-3,4-dihydro-1H-[1,8]naphthyridin-2-one]
Ki (Table 1): 15.5 nM

CCN1CCCc2c1cccc2N1CCN(CCCCOc2ccc3c(n2)NC(=O)CC3)CC1 [Example A33′, 7-{4-[4-(1-Ethyl-1,2,3,4-tetrahydro-quinolin-5-yl)-piperazin-1-yl]-butoxy}-3,4-dihydro-1H-[1,8]naphthyridin-2-one]
Ki (Table 2): 17.3 nM

CC(=O)c1ccccc1N1CCN(CCCCOc2ccc3c(n2)NC(=O)CC3)CC1 [Example A34, 7-{4-[4-(2-Acetyl-phenyl)-piperazin-1-yl]-butoxy}-3,4-dihydro-1H-[1,8]naphthyridin-2-one]
Ki (Table 1): 0.5 nM

O=C1CCc2ccc(OCCCCN3CCN(c4cccc5cccnc45)CC3)nc2N1 [Example A34′, 7-[4-(4-Quinolin-8-yl-piperazin-1-yl)-butoxy]-3,4-dihydro-1H-[1,8]naphthyridin-2-one]
Ki (Table 2): 1 nM

CCc1ccccc1N1CCN(CCCCOc2ccc3c(n2)NC(=O)CC3)CC1 [Example A35, 7-{4-[4-(2-Ethyl-phenyl)-piperazin-1-yl]-butoxy}-3,4-dihydro-1H-[1,8]naphthyridin-2-one]
Ki (Table 1): 0.3 nM

O=C1CCc2ccc(OCCCCN3CCN(c4cccc5ncccc45)CC3)nc2N1 [Example A35′, 7-[4-(4-Quinolin-5-yl-piperazin-1-yl)-butoxy]-3,4-dihydro-1H-[1,8]naphthyridin-2-one]
Ki (Table 2): 1.4 nM

O=C1CCc2ccc(OCCCCN3CCN(c4cccc5ccncc45)CC3)nc2N1 [Example A36′, 7-[4-(4-Isoquinolin-8-yl-piperazin-1-yl)-butoxy]-3,4-dihydro-1H-[1,8]naphthyridin-2-one]
Ki (Table 2): 0.6 nM

O=C1CCc2ccc(OCCCCN3CCN(c4ccccc4C(F)(F)F)CC3)nc2N1 [Example A37, 7-{4-[4-(2-Trifluoromethyl-phenyl)-piperazin-1-yl]-butoxy}-3,4-dihydro-1H-[1,8]naphthyridin-2-one]
Ki (Table 1): 2.2 nM

O=C1CCc2ccc(OCCCCN3CCN(c4cccc5cnccc45)CC3)nc2N1 [Example A37′, 7-[4-(4-Isoquinolin-5-yl-piperazin-1-yl)-butoxy]-3,4-dihydro-1H-[1,8]naphthyridin-2-one]
Ki (Table 2): 1.6 nM

O=C1CCc2ccc(OCCCCN3CCN(c4cccc(C(F)(F)F)c4)CC3)nc2N1 [Example A38, 7-{4-[4-(3-Trifluoromethyl-phenyl)-piperazin-1-yl]-butoxy}-3,4-dihydro-1H-[1,8]naphthyridin-2-one]
Ki (Table 1): 6 nM

O=C1CCc2ccc(OCCCCN3CCN(c4cccc5ncc(F)cc45)CC3)nc2N1 [Example A38′, 7-{4-[4-(3-Fluoro-quinolin-5-yl)-piperazin-1-yl]-butoxy}-3,4-dihydro-1H-[1,8]naphthyridin-2-one]
Ki (Table 2): 1 nM

O=C1CCc2ccc(OCCCCN3CCN(c4ccccc4)CC3)nc2N1 [Example A39, 7-[4-(4-phenyl-piperazin-1-yl)-butoxy]-3,4-dihydro-1H-[1,8]naphthyridin-2-one]
Ki (Table 1): 7.9 nM

O=C1CCc2ccc(OCCCCN3CCN(c4cccc5cc(F)cnc45)CC3)nc2N1 [Example A39′, 7-{4-[4-(3-Fluoro-quinolin-8-yl)-piperazin-1-yl]-butoxy}-3,4-dihydro-1H-[1,8]naphthyridin-2-one]
Ki (Table 2): 0.4 nM

O=C1CCc2ccc(OCCCCN3CCN(c4ccc(F)cc4)CC3)nc2N1 [Example A40, 7-{4-[4-(4-Fluoro-phenyl)-piperazin-1-yl]-butoxy}-3,4-dihydro-1H-[1,8]naphthyridin-2-one]
Ki (Table 1): 12 nM

Cc1ccc2cccc(N3CCN(CCCCOc4ccc5c(n4)NC(=O)CC5)CC3)c2n1 [Example A40′, 7-{4-[4-(2-Methyl-quinolin-8-yl)-piperazin-1-yl]-butoxy}-3,4-dihydro-1H-[1,8]naphthyridin-2-one]
Ki (Table 2): 1 nM

O=C1CCc2ccc(OCCCCN3CCN(c4ccc(F)cc4F)CC3)nc2N1 [Example A41, 7-{4-[4-(2,4-Difluoro-phenyl)-piperazin-1-yl]-butoxy}-3,4-dihydro-1H-[1,8]naphthyridin-2-one]
Ki (Table 1): 9.1 nM

COc1ccc2cccc(N3CCN(CCCCOc4ccc5c(n4)NC(=O)CC5)CC3)c2n1 [Example A41′, 7-{4-[4-(2-Methoxy-quinolin-8-yl)-piperazin-1-yl]-butoxy}-3,4-dihydro-1H-[1,8]naphthyridin-2-one]
Ki (Table 2): 1 nM

CC(F)(F)c1ccccc1N1CCN(CCCCOc2ccc3c(n2)NC(=O)CC3)CC1 [Example A42, 7-(4-{4-[2-(1,1-Difluoro-ethyl)-phenyl]-piperazin-1-yl}-butoxy)-3,4-dihydro-1H-[1,8]naphthyridin-2-one]
Ki (Table 1): 4.9 nM

CCOc1ccc2cccc(N3CCN(CCCCOc4ccc5c(n4)NC(=O)CC5)CC3)c2n1 [Example A42′, 7-{4-[4-(2-Ethoxy-quinolin-8-yl)-piperazin-1-yl]-butoxy}-3,4-dihydro-1H-[1,8]naphthyridin-2-one]
Ki (Table 2): 0.7 nM

O=C1CCc2ccc(OCCCCN3CCN(c4ccccn4)CC3)nc2N1 [Example A43, 7-[4-(4-Pyridin-2-yl-piperazin-1-yl)-butoxy]-3,4-dihydro-1H-[1,8]naphthyridin-2-one]
Ki (Table 1): 52 nM

COc1ccc2c(N3CCN(CCCCOc4ccc5c(n4)NC(=O)CC5)CC3)cccc2n1 [Example A43′, 7-{4-[4-(2-Methoxy-quinolin-5-yl)-piperazin-1-yl]-butoxy}-3,4-dihydro-1H-[1,8]naphthyridin-2-one]
Ki (Table 2): 25.2 nM

Cc1cccc(N2CCN(CCCCOc3ccc4c(n3)NC(=O)CC4)CC2)n1 [Example A44, 7-{4-[4-(6-Methyl-pyridin-2-yl)-piperazin-1-yl]-butoxy}-3,4-dihydro-1H-[1,8]naphthyridin-2-one]
Ki (Table 1): 22.2 nM
